First the molecules themselves.
B1: TEV protease; numbered along this chain (parent)
chain: MGESLFKGPRDYNPISSSICHLTNESDGHTTSLYGIGFGPFIITNKHLFRRNNGTLVVQSLHGVFKVKDTTTLQQHLVDGRDMIIIRMPKDFPPFPQKLKFREPQREERICLVTTNFQTKSMSSMVSDTSCTFPSGDGIFWKHWIQTKDGQCGSPLVSTRDGFIVGIHSASNFTNTNNYFTSVPKNFMELLTNQEAQQWVSGWRLNADSVLWGGHKVFMVKPEEPFQPVKEATQL

This is one part of the list. The full chains were built here from the parent and the listed change. Values near 0.05 are background.

Variants of B1 are the subject of the experiment. As to the kind of experiment: raw area under fraction-flipped curve 0-4 h after induction (AUC4h, not background-subtracted), DNA-recorder readout of cleavage of the substrate (dimensionless); higher = more cleavage of the substrate by the protease variant. The settings on record: temperature: 34 °C; time window: 0-4 h after rhamnose induction. How it is done:
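In vivo DNA recorder in E. coli TOP10(DE3) ΔrhaA at 34 °C. Each TEVp single-site mutant (parent TEVp 0) is paired with a single-site variant of the 7-mer TEVs (canonical ENLYFQ|S). The substrate sits between flexible linkers in a Bxb1-sfGFP-TEVs-SsrA fusion, so cleavage stabilises Bxb1 and speeds flipping of a recombination array, read by NGS. The value is the raw area under the fraction-flipped curve over 0-4 h after rhamnose induction (AUC4h), with ≥20 reads per time point. It is not background-subtracted; inactive controls average about 0.047.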
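Further: Bxb1 expression induced with 0.2% (w/v) L-rhamnose at OD600 near 0.5, cultures sampled hourly, flipped fraction per protease–substrate barcode pair counted by paired-end Illumina sequencing.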

Take MGESLFKGPRDYNPISSSICHLTNTSDGHTTSLYGIGFGPFIITNKHLFRRNNGTLVVQSLHGVFKVKDTTTLQQHLVDGRDMIIIRMPKDFPPFPQKLKFREPQREERICLVTTNFQTKSMSSMVSDTSCTFPSGDGIFWKHWIQTKDGQCGSPLVSTRDGFIVGIHSASNFTNTNNYFTSVPKNFMELLTNQEAQQWVSGWRLNADSVLWGGHKVFMVKPEEPFQPVKEATQL [E25T]: the “area with substrate ENAYFQS” value came out at 0.0667, the “area with substrate ENCYFQS” value was determined as 0.0653, the “area with substrate ENDYFQS” value was found to be 0.0571 and the “area with substrate ENEYFQS” value came out at 0.0643. Also, the “area with substrate ENGYFQS” value worked out at 0.0507, the “area with substrate ENHYFQS” value was found to be 0.0695, the “area with substrate ENKYFQS” value worked out at 0.0511 and the “area with substrate ENMYFQS” value was 0.0842. Moreover, the “area with substrate ENPYFQS” value turned out to be 0.062, the “area with substrate ENRYFQS” value amounted to 0.0508, the “area with substrate ENSYFQS” value stood at 0.0578 and the “area with substrate ENTYFQS” value was 0.0599. Moreover, the “area with substrate ENVYFQS” value amounted to 0.0791.

Turning to MGESLFKGPRDYNPISSSICHLTNQSDGHTTSLYGIGFGPFIITNKHLFRRNNGTLVVQSLHGVFKVKDTTTLQQHLVDGRDMIIIRMPKDFPPFPQKLKFREPQREERICLVTTNFQTKSMSSMVSDTSCTFPSGDGIFWKHWIQTKDGQCGSPLVSTRDGFIVGIHSASNFTNTNNYFTSVPKNFMELLTNQEAQQWVSGWRLNADSVLWGGHKVFMVKPEEPFQPVKEATQL [E25Q], the “area with substrate ENAYFQS” value came to 0.0682, the “area with substrate ENCYFQS” value was 0.0726, the “area with substrate ENDYFQS” value was 0.0645 and the “area with substrate ENEYFQS” value was found to be 0.0628. For the same variant, the “area with substrate ENFYFQS” value came out at 0.0347, the “area with substrate ENGYFQS” value was 0.0489, the “area with substrate ENKYFQS” value is 0.0526 and the “area with substrate ENNYFQS” value came to 0.0802. In addition, the “area with substrate ENPYFQS” value amounted to 0.0763, the “area with substrate ENQYFQS” value worked out at 0.0587, the “area with substrate ENRYFQS” value worked out at 0.057 and the “area with substrate ENSYFQS” value is 0.0724. Moreover, the “area with substrate ENTYFQS” value amounted to 0.0761, the “area with substrate ENVYFQS” value stood at 0.0881, the “area with substrate ENWYFQS” value was 0.0061 and the “area with substrate ENYYFQS” value is 0.0487.

Take MGESLFKGPRDYNPISSSICHLTNESDAHTTSLYGIGFGPFIITNKHLFRRNNGTLVVQSLHGVFKVKDTTTLQQHLVDGRDMIIIRMPKDFPPFPQKLKFREPQREERICLVTTNFQTKSMSSMVSDTSCTFPSGDGIFWKHWIQTKDGQCGSPLVSTRDGFIVGIHSASNFTNTNNYFTSVPKNFMELLTNQEAQQWVSGWRLNADSVLWGGHKVFMVKPEEPFQPVKEATQL [G28A]: the “area with substrate ENAYFQS” value is 0.0521, the “area with substrate ENCYFQS” value was 0.0521, the “area with substrate ENDYFQS” value turned out to be 0.0576 and the “area with substrate ENEYFQS” value came out at 0.0578. Also, the “area with substrate ENFYFQS” value worked out at 0.0592, the “area with substrate ENGYFQS” value is 0.0624, the “area with substrate ENHYFQS” value came out at 0.0492 and the “area with substrate ENKYFQS” value was 0.0524. Also, the “area with substrate ENMYFQS” value amounted to 0.0541, the “area with substrate ENNYFQS” value worked out at 0.0618, the “area with substrate ENPYFQS” value came out at 0.0538 and the “area with substrate ENQYFQS” value came out at 0.0525. Also, the “area with substrate ENRYFQS” value was found to be 0.0667, the “area with substrate ENSYFQS” value came to 0.0846, the “area with substrate ENVYFQS” value was found to be 0.0683 and the “area with substrate ENYYFQS” value worked out at 0.0563.

Consider MGESLFKGPRDYNPISSSICHLTNESDNHTTSLYGIGFGPFIITNKHLFRRNNGTLVVQSLHGVFKVKDTTTLQQHLVDGRDMIIIRMPKDFPPFPQKLKFREPQREERICLVTTNFQTKSMSSMVSDTSCTFPSGDGIFWKHWIQTKDGQCGSPLVSTRDGFIVGIHSASNFTNTNNYFTSVPKNFMELLTNQEAQQWVSGWRLNADSVLWGGHKVFMVKPEEPFQPVKEATQL [G28N], for which the “area with substrate ENAYFQS” value was determined as 0.0586, the “area with substrate ENCYFQS” value is 0.0603, the “area with substrate ENDYFQS” value was determined as 0.0475 and the “area with substrate ENHYFQS” value was determined as 0.0614. Besides, the “area with substrate ENKYFQS” value was 0.0751, the “area with substrate ENNYFQS” value was determined as 0.0669, the “area with substrate ENPYFQS” value was 0.0526 and the “area with substrate ENQYFQS” value is 0.0443. Besides, the “area with substrate ENRYFQS” value was 0.0793, the “area with substrate ENSYFQS” value came to 0.0596, the “area with substrate ENVYFQS” value came out at 0.0778 and the “area with substrate ENYYFQS” value was determined as 0.0515.

On to MGESLFKGPRDYNPISSSITHLTNESDGHTTSLYGIGFGPFIITNKHLFRRNNGTLVVQSLHGVFKVKDTTTLQQHLVDGRDMIIIRMPKDFPPFPQKLKFREPQREERICLVTTNFQTKSMSSMVSDTSCTFPSGDGIFWKHWIQTKDGQCGSPLVSTRDGFIVGIHSASNFTNTNNYFTSVPKNFMELLTNQEAQQWVSGWRLNADSVLWGGHKVFMVKPEEPFQPVKEATQL [C20T], for which the “area with substrate ENAYFQS” value amounted to 0.0677, the “area with substrate ENCYFQS” value came to 0.0517, the “area with substrate ENDYFQS” value came to 0.0579 and the “area with substrate ENEYFQS” value came out at 0.0552. The “area with substrate ENFYFQS” value is 0.0587, the “area with substrate ENGYFQS” value is 0.0492, the “area with substrate ENHYFQS” value is 0.0524 and the “area with substrate ENIYFQS” value was 0.0866. The “area with substrate ENMYFQS” value stood at 0.0876, the “area with substrate ENNYFQS” value came out at 0.0596, the “area with substrate ENPYFQS” value was 0.052 and the “area with substrate ENQYFQS” value was determined as 0.0504. Also, the “area with substrate ENRYFQS” value stood at 0.0537, the “area with substrate ENSYFQS” value was 0.0658, the “area with substrate ENTYFQS” value came to 0.063 and the “area with substrate ENVYFQS” value was 0.0733. For the same variant, the “area with substrate ENWYFQS” value came out at 0.0434 and the “area with substrate ENYYFQS” value amounted to 0.0681.

MGESLFKGPRDYNPISSSICHTTNESDGHTTSLYGIGFGPFIITNKHLFRRNNGTLVVQSLHGVFKVKDTTTLQQHLVDGRDMIIIRMPKDFPPFPQKLKFREPQREERICLVTTNFQTKSMSSMVSDTSCTFPSGDGIFWKHWIQTKDGQCGSPLVSTRDGFIVGIHSASNFTNTNNYFTSVPKNFMELLTNQEAQQWVSGWRLNADSVLWGGHKVFMVKPEEPFQPVKEATQL [L22T]: the “area with substrate ENAYFQS” value was found to be 0.0373, the “area with substrate ENDYFQS” value amounted to 0.021, the “area with substrate ENEYFQS” value is 0.046 and the “area with substrate ENFYFQS” value worked out at 0.056. The “area with substrate ENGYFQS” value worked out at 0.05, the “area with substrate ENIYFQS” value was 0.0287, the “area with substrate ENKYFQS” value is 0.0494 and the “area with substrate ENMYFQS” value turned out to be 0.0459. For the same variant, the “area with substrate ENNYFQS” value is 0.0458, the “area with substrate ENPYFQS” value was 0.0601, the “area with substrate ENQYFQS” value came to 0.0486 and the “area with substrate ENRYFQS” value came out at 0.054. In addition, the “area with substrate ENSYFQS” value came to 0.0507, the “area with substrate ENVYFQS” value turned out to be 0.0474 and the “area with substrate ENYYFQS” value came out at 0.0559.

With MGESLFKGPRDYNPISSSICHRTNESDGHTTSLYGIGFGPFIITNKHLFRRNNGTLVVQSLHGVFKVKDTTTLQQHLVDGRDMIIIRMPKDFPPFPQKLKFREPQREERICLVTTNFQTKSMSSMVSDTSCTFPSGDGIFWKHWIQTKDGQCGSPLVSTRDGFIVGIHSASNFTNTNNYFTSVPKNFMELLTNQEAQQWVSGWRLNADSVLWGGHKVFMVKPEEPFQPVKEATQL [L22R], the “area with substrate ENAYFQS” value worked out at 0.0432, the “area with substrate ENCYFQS” value was found to be 0.0456, the “area with substrate ENDYFQS” value came out at 0.0495 and the “area with substrate ENEYFQS” value was 0.0464. The “area with substrate ENFYFQS” value stood at 0.0452, the “area with substrate ENGYFQS” value came to 0.0517, the “area with substrate ENKYFQS” value was found to be 0.0459 and the “area with substrate ENMYFQS” value was 0.101. Moreover, the “area with substrate ENNYFQS” value stood at 0.039, the “area with substrate ENPYFQS” value stood at 0.0497, the “area with substrate ENQYFQS” value turned out to be 0.0433 and the “area with substrate ENRYFQS” value was determined as 0.0467. The “area with substrate ENSYFQS” value was 0.0522, the “area with substrate ENTYFQS” value stood at 0.0455, the “area with substrate ENVYFQS” value was found to be 0.039 and the “area with substrate ENWYFQS” value came out at 0.0345. The “area with substrate ENYYFQS” value came to 0.0413.

Regarding MGESLFKGPRDYNPISSSICHLTNESTGHTTSLYGIGFGPFIITNKHLFRRNNGTLVVQSLHGVFKVKDTTTLQQHLVDGRDMIIIRMPKDFPPFPQKLKFREPQREERICLVTTNFQTKSMSSMVSDTSCTFPSGDGIFWKHWIQTKDGQCGSPLVSTRDGFIVGIHSASNFTNTNNYFTSVPKNFMELLTNQEAQQWVSGWRLNADSVLWGGHKVFMVKPEEPFQPVKEATQL [D27T], the “area with substrate ENAYFQS” value was found to be 0.0586, the “area with substrate ENCYFQS” value came out at 0.0682, the “area with substrate ENDYFQS” value was 0.0504 and the “area with substrate ENEYFQS” value was 0.0658. In addition, the “area with substrate ENFYFQS” value came to 0.0641, the “area with substrate ENGYFQS” value was 0.0637, the “area with substrate ENHYFQS” value worked out at 0.0608 and the “area with substrate ENMYFQS” value was 0.0587. Besides, the “area with substrate ENNYFQS” value is 0.0646, the “area with substrate ENPYFQS” value stood at 0.0732, the “area with substrate ENQYFQS” value was determined as 0.064 and the “area with substrate ENRYFQS” value stood at 0.0648. The “area with substrate ENSYFQS” value turned out to be 0.0678, the “area with substrate ENTYFQS” value amounted to 0.0204, the “area with substrate ENVYFQS” value stood at 0.0648 and the “area with substrate ENWYFQS” value stood at 0.0077.

With MGESLFKGPRDYNPISSSICHLTLESDGHTTSLYGIGFGPFIITNKHLFRRNNGTLVVQSLHGVFKVKDTTTLQQHLVDGRDMIIIRMPKDFPPFPQKLKFREPQREERICLVTTNFQTKSMSSMVSDTSCTFPSGDGIFWKHWIQTKDGQCGSPLVSTRDGFIVGIHSASNFTNTNNYFTSVPKNFMELLTNQEAQQWVSGWRLNADSVLWGGHKVFMVKPEEPFQPVKEATQL [N24L], the “area with substrate ENAYFQS” value amounted to 0.0662, the “area with substrate ENCYFQS” value is 0.0698, the “area with substrate ENDYFQS” value was determined as 0.0695 and the “area with substrate ENEYFQS” value is 0.0663. In addition, the “area with substrate ENFYFQS” value worked out at 0.057, the “area with substrate ENGYFQS” value was determined as 0.0714, the “area with substrate ENHYFQS” value stood at 0.0652 and the “area with substrate ENIYFQS” value came to 0.107. Besides, the “area with substrate ENKYFQS” value came to 0.0592, the “area with substrate ENMYFQS” value came out at 0.0979, the “area with substrate ENNYFQS” value turned out to be 0.0583 and the “area with substrate ENQYFQS” value stood at 0.0647. Moreover, the “area with substrate ENRYFQS” value amounted to 0.0696, the “area with substrate ENSYFQS” value came to 0.0561, the “area with substrate ENTYFQS” value amounted to 0.0797 and the “area with substrate ENVYFQS” value is 0.0755. The “area with substrate ENWYFQS” value worked out at 0.0069 and the “area with substrate ENYYFQS” value came to 0.0577.
